The campaign covered roughly 410,000 compounds. About 5,000 (1.2%) were called active. Inconclusive means that the source gave no clear call. Such entries were picked first, then a sample of the others. Calls come from the whole dose curve; as a rule, active = well fitted inhibition curve with a large enough effect; inconclusive = small, poorly fitted or top-dose-only effect; inactive = no such curve, though single readings can be large or run the other way. Potencies of inconclusive entries are doubtful fits and often do not repeat.
Experiment: qHTS for Inhibitors of TGF-b; note: nearly all actives have a fitted effect of over 65% in size
Conditions: HepG2 CAGA-GFP TGF-b/SMAD3 reporter, GFP fluorescence, 18 h, TGF-beta stimulated, 500 pg/mL final; series mostly up to 46.1 µM; activity, negative = inhibition: at the top concentration
Summary of the method: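 Per well, imaged GFP fluorescence of HEPG2 CAGA-GFP cells gives the signal; cells get compound, then TGF-beta (500 pg/mL final), 18 h at 37 degrees C; %Activity versus -TGF-beta and +DMSO controls.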
% is set by controls: 0 for no effect and ±100 for the full control effect; potency is the fitted concentration of half-maximal effect; tags give direction and shape of the fitted curve.

| SMILES | Potency | activity, negative = inhibition |
| --- | --- | --- |
| O=C(COC(=O)c1cc(-c2ccccc2)nc2ccccc12)Nc1ccc2c(c1)OCO2 | inconclusive: 5.62 µM [inhibitor, single point] | – |
| Cc1c(Cl)c([N+](=O)[O-])nn1CC(=O)NC(C)C1CC2CCC1C2 (centres undefined) | inconclusive: 2.82 µM [inhibitor, single point] | – |
| CCOC(=O)c1cnc2c(OC)cccc2c1N1CC(C)CC(C)C1 (centres undefined) | inconclusive: 22.4 µM [inhibitor, partial curve, poor fit] | – |
| COC(=O)c1ccccc1NC(=O)Oc1ccc(C(C)C)cc1 | – | inactive: -24% |
| O=C(CSc1ncnc2c1nnn2Cc1ccccc1F)N1CCN(c2ccccc2)CC1 | – | inactive: -13.3% |
| Cc1cccc(NC(=S)N(CCCN2CCCC2)Cc2cccn2Cc2ccc(Cl)cc2)c1 | inconclusive: 35.5 µM [inhibitor, single point] | – |
| Cc1ccccc1Cn1c(C)c(C(=O)NCc2ccc(Cl)c(Cl)c2)sc1=O | inconclusive: 35.5 µM [inhibitor, single point] | – |
| Cn1c(Oc2ccc(Cl)cc2)c(C=O)c2ccccc21 | inconclusive: 20 µM [inhibitor, partial curve, poor fit] | – |
| C[C@H]1CN([C@@H](C)CO)S(=O)(=O)c2ccc(Br)cc2O[C@@H]1CN(C)C(=O)CCN1CCCCC1 | inconclusive: 35.5 µM [inhibitor, single point] | – |
| N#Cc1cccc(NC(=O)c2cc(C3CCCCN3C(=O)CCCc3ccccc3)on2)c1 (centres undefined) | – | inactive: 0.655% |
| O=C(CCNS(=O)(=O)c1ccccc1F)N1CCN(C(c2ccccc2)c2ccccc2)CC1 | inconclusive: 17.8 µM [inhibitor, partial curve, poor fit] | – |
| O=C(COc1ccc(-n2cnnn2)cc1)Nc1ccccc1OC(F)F | inconclusive: 2.82 µM [inhibitor, single point] | – |
| O=C1CC(N2CCN(C/C=C/c3ccccc3)CC2)C(=O)N1Cc1ccc(N2CCCC2=O)cc1 (centres undefined) | – | inactive: -20.8% |
| O=C(CCNS(=O)(=O)c1ccc2c(c1)CCN2C(=O)C1CC1)N1CCN(c2cccc(C(F)(F)F)c2)CC1 | inconclusive: 35.5 µM [inhibitor, single point] | – |
| CC(C)NC(=O)C1(C)CCN1C(=O)c1c(F)cccc1F (centres undefined) | – | inactive: 19.4% |
| CCCc1ccc(OC(C)c2nc(-c3ccc(-n4cccc4)cc3)no2)cc1 (centres undefined) | inconclusive: 28.2 µM [inhibitor, single point] | – |
| CC(C)(C)C1CCc2onc(C(=O)NC3CCCC3)c2C1 (centres undefined) | – | inactive: 0.718% |
| Cc1ccc(NC(=S)Nc2ccc(Br)cc2)cc1 | – | inactive: 30.5% |
| CCOC1=C2[C@H]([C@H]3C(=O)N(c4ccccc4)C(=O)[C@H]3C1)[C@@H](C(C)C)N(S(=O)(=O)c1ccc(C)cc1)[C@H]2c1ccccc1 | – | inactive: 0.339% |
| COc1cc(S(=O)(=O)NC2CCCCC2)ccc1Cl | inconclusive: 20 µM [inhibitor, single point] | – |
| CCC(C)NC(=O)CC(NS(=O)(=O)c1ccc(NC(C)=O)cc1)C(C)C (centres undefined) | – | inactive: -9.8% |
| CC(=O)Nc1cccc(-c2cc(NC=O)c3ncc(-c4cccc(C(C)=O)c4)n3c2)c1 | active: 2.82 µM | – |
| COc1ccc(-c2sc3ccccc3c2C#CCO)cc1 | inconclusive: 35.5 µM [inhibitor, single point] | – |

| SMILES | Potency | activity, negative = inhibition |
| --- | --- | --- |
| CCCCn1c(N)c(N(CC)C(=O)C2=COCCO2)c(=O)[nH]c1=O | – | inactive: 2.98% |
| O=C(NCc1cccs1)C1CCCN(c2nc3ccccc3o2)C1 (centres undefined) | inconclusive: 35.5 µM [inhibitor, partial curve, poor fit] | – |
| CCOc1ccc(S(=O)(=O)N2CCN(C(=O)c3cc4ccccc4o3)CC2)cc1 | inconclusive: 35.5 µM [inhibitor, single point] | – |
| CCCC(C)C(=O)Nc1ncc(S(=O)(=O)c2ccc([N+](=O)[O-])cc2)s1 (centres undefined) | – | inactive: 0% |
| Cc1cc(S(=O)(=O)Nc2ccc(C(=O)NC3CC3)cc2)ccc1F | – | inactive: -10.9% |
| O=C(CSc1nnc(CN2CCOCC2)n1-c1ccc(Cl)cc1)N1CCc2ccccc21 | inconclusive: 1.12 µM [inhibitor, partial curve, poor fit] | – |
| CCNc1cc2c(cc1O)CCC1C2CCC2(C)C(O)CCC12 (centres undefined) | inconclusive: 25.1 µM [inhibitor, single point] | – |
| Cc1cc(C(=O)N2CCC2(C)C(=O)NS(=O)(=O)c2cccc(OC(F)F)c2)nn1C (centres undefined) | – | inactive: -6.01% |
| Cc1ccc2oc(C(Cl)(Cl)Cl)cc(=O)c2c1 | inconclusive: 8.91 µM [inhibitor, partial curve, poor fit] | – |
| COc1ccccc1NS(=O)(=O)c1cc(NC(=O)c2ccco2)ccc1N1CCOCC1 | inconclusive: 35.5 µM [inhibitor, single point] | – |
| CN1CCN(Cc2nc3ccccc3c(=O)n2Cc2nc(-c3ccc4ccccc4c3)cs2)CC1 | inconclusive: 31.6 µM [inhibitor, single point] | – |
| COc1ccc(OC)c(S(=O)(=O)N2CCN(Cc3nc4ccc(C)cc4o3)CC2)c1 | inconclusive: 6.31 µM [inhibitor, single point] | – |
| C[C@H](CO)N1C[C@H](C)[C@@H](CN(C)Cc2ccncc2)Oc2c(NC(=O)C3CC3)cccc2C1=O | inconclusive: 5.62 µM [inhibitor, single point] | – |
| O=C(CCCNC(=O)c1ccc(Cl)cc1)Nc1ccccc1C(F)(F)F | – | inactive: -1.22% |
| O=C(NNc1c([N+](=O)[O-])cc(C(F)(F)F)cc1[N+](=O)[O-])c1ccco1 | inconclusive: 17.8 µM [inhibitor, single point] | – |
| O=S(=O)(NCc1ccccc1)c1ccccc1Br | inconclusive: 0.112 µM [inhibitor, full curve, poor fit] | – |
| C/C(=N\NC(=O)COc1ccccc1-c1ccccc1)c1ccccn1 | active: 11.2 µM | – |
| CC(C)(C)OC(=O)N1CCC(C(=O)Nc2cccc(C(=O)NCCCCc3ccccc3)c2)CC1 | – | inactive: -3.76% |
| COc1ccc(C(=O)NC2CCCCCC2)cc1S(=O)(=O)N1CCCc2ccccc21 | – | inactive: -0.0374% |
| CCC(NC(=O)c1cc(COc2ccc(OC)cc2Cl)on1)c1ccncc1 (centres undefined) | – | inactive: -10.8% |
| CC(=O)OC(C(=O)NC1CCCCC1)c1ccccc1Cl (centres undefined) | inconclusive: 12.6 µM [inhibitor, single point] | – |
| COc1cc(/C=N/Nc2nncn2N)ccc1OCc1c(C)no[n+]1[O-] | active: 7.08 µM | – |
| Cc1cc([N+](=O)[O-])nn1Cc1ccc(C(=O)N/N=C/c2ccc(O)cc2O)cc1 | inconclusive: 1.12 µM [inhibitor, full curve, poor fit] | – |

| SMILES | Potency | activity, negative = inhibition |
| --- | --- | --- |
| CC1CCCCC12NC(=S)N(c1ccccc1)N2 (centres undefined) | – | inactive: 1.56% |
| O=c1c(N2CCN(c3cccc(Cl)c3)CC2)csc2ccc(Cl)cc12 | inconclusive: 17.8 µM [inhibitor, single point] | – |
| CCCC1=NN(C(=O)C(=O)Nc2ccc(Br)cc2)C(O)(C(F)(F)F)C1 (centres undefined) | inconclusive: 15.8 µM [inhibitor, single point] | – |
| CCc1nc(Nc2ccc(OC)c(OC)c2)c2nnn(Cc3ccccc3Cl)c2n1 | inconclusive: 0.891 µM [inhibitor, full curve, poor fit] | – |
| COc1ccc2[nH]cc(C(=O)CN3CCCC(C)C3)c2c1 (centres undefined) | – | inactive: 14% |
| CC(C)N1C(=O)/C(=C/c2nc3ccccc3c(=O)n2-c2ccccc2)c2ccccc21 | inconclusive: 22.4 µM [inhibitor, single point] | – |
| CCCCOC(=O)c1ccc(Nc2nc3ccc(C(=O)c4ccccc4)cc3n3cnnc23)cc1 | inconclusive: 35.5 µM [inhibitor, single point] | – |
| Cc1ccc(C2=NN(C(=O)CCl)C(c3cccs3)C2)o1 (centres undefined) | active: 8.91 µM | – |
| CCOC(=O)C1(CCCc2ccccc2)CCN(C(=O)[C@@H]2C[C@@H](C)NC(=S)N2)CC1 | inconclusive: 5.62 µM [inhibitor, single point] | – |
| CCOC(=O)C1(Cc2cccc(Cl)c2)CCCN(C(=O)c2ccco2)C1 (centres undefined) | – | inactive: -24.3% |
| O=C(Cc1ccc(Cl)c(Cl)c1)Nc1cccnc1 | – | inactive: -5.02% |
| Cc1cccc(NC(=O)N2CC=C(c3c[nH]c4ccccc34)CC2)c1C | – | inactive: 38.1% |
| Cc1ccccc1C(=O)Nc1cccc(-c2cn3ccccc3n2)c1 | inconclusive: 35.5 µM [inhibitor, single point] | – |
| COCCNC(=O)C1(C)CCN(C(=O)C2(c3ccc(Cl)cc3)CCCC2)C1 (centres undefined) | – | inactive: 18.3% |
| O=C(NCC1CC1)c1ccc(Nc2nc3ccc(Br)cc3[nH]2)cc1 | active: 10 µM | – |
| Cc1cc(OCCCCOc2ccc(S(N)(=O)=O)c(C)c2)ccc1S(N)(=O)=O | inconclusive: 22.4 µM [inhibitor, single point] | – |
| COc1ccc(CNC(=O)C/C(C)=N/NC(=O)Cc2ccc(OC)cc2)cc1 | inconclusive: 17.8 µM [inhibitor, single point] | – |
| C=CCc1cc(C=O)cc(OCC)c1OCc1ccc(Cl)cc1 | inconclusive: 2.82 µM [inhibitor, single point] | – |
| CCc1ccc2occ(CC(=O)Nc3ccc(C)c(C)c3)c2c1 | inconclusive: 22.4 µM [inhibitor, single point] | – |
| Cc1c(CN(C)Cc2cn(C)nc2-c2ccccc2F)[nH]c2ccccc12 | inconclusive: 35.5 µM [inhibitor, single point] | – |
| Cc1ccc(-c2ccc(C(=O)NCc3ccc(Cl)cc3)o2)c2ccccc12 | inconclusive: 12.6 µM [inhibitor, partial curve, poor fit] | – |
| COc1ccc2nc(SCCOC(=O)Nc3ccc(Cl)cc3)nc(C)c2c1 | inconclusive: 11.2 µM [inhibitor, partial curve, poor fit] | – |
| Cc1sc2ncn(CC(=O)N3CCN(c4ccccc4)CC3)c(=O)c2c1S(=O)(=O)N1CCC(C)CC1 | inconclusive: 12.6 µM [inhibitor, single point] | – |
